Measured values reported in PubChem BioAssay AID1159614 (National Center for Advancing Translational Sciences (NCATS), 2016).
About 65 (0.1%) of roughly 45,000 compounds were called active. The call rests on the fitted dose curve; in most records, active means well fitted activation curve with a large enough effect; inconclusive means small, poorly fitted or top-dose-only effect; inactive means no such curve, though single readings can be large or run the other way. Some of the results follow.

Each molecule was assayed against Galactocerebrosidase (Homo sapiens) (UniProt P54803) (assay: A Novel Cell-Based Assay to Identify Small Molecules for B -Galactocerebrosidase). Conditions: 145M-Twi-hGALC-G270D cells (Twitcher mouse brain line with human GALC G270D), HMU-beta-Gal fluorescence, 48 h; series mostly up to 57.5 µM; activation: at the top concentration.
Procedure, shortened: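 Fluorescence readout: HMU-β-gal cleavage by mutant GALC (0.1 mM final, citrate/phosphate pH 5.2 with 1 mg/mL taurocholate), stopped with carbonate/bicarbonate plus Triton X-100. Cells: murine Twitcher 145M-Twi expressing human G270D GALC; qHTS for activators.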
Further: 0% is about no effect; nearly all actives have a fitted effect of over 65% in size.

Chain of UniProt P54803 (P54803 whole entry, looked up): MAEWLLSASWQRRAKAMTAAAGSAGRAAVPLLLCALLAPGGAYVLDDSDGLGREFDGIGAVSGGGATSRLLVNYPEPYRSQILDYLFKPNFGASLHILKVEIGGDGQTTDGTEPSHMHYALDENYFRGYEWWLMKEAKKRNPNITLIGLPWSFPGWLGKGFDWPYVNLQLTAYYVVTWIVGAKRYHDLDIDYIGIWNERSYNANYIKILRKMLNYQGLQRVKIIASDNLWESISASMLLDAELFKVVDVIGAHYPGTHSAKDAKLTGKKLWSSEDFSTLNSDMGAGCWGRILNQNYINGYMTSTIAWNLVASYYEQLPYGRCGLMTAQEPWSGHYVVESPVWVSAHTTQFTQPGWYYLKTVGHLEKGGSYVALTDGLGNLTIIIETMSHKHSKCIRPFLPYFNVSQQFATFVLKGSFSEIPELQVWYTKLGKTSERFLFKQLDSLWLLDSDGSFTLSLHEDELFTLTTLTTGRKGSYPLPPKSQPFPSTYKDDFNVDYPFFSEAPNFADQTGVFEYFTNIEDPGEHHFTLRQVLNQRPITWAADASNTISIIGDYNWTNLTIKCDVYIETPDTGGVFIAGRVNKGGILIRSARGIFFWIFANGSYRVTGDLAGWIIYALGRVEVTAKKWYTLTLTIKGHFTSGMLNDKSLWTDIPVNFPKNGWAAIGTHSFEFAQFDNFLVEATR

activation, inactive:
CCOc1cccc(CC(=O)N2CCc3c([nH]c4ccccc34)C2c2ccc(C)cc2)c1OCC (stereo unspecified) -1.08%
CCn1cc(C(=O)OCC(=O)Nc2cccc(Cl)c2C)c(=O)c2ccc(C)nc21 -10.7%
C=Cc1ccc(CSc2nc(-c3ccccc3C)nc3c2Cc2c(CO)cnc(C)c2O3)cc1 -10.5%
CCC1CCCCN1S(=O)(=O)c1ccc2c(c1)CCCN2C(C)=O (stereo unspecified) -13.8%
CCc1ccccc1N(C)C(=O)Nc1cn(CC(C)C)c(=O)c2ccccc12 -26.6%
COCCNC(=O)CN1C(=O)COc2ccc(S(=O)(=O)N3CCOCC3)cc21 -7.28%
O=C(CSc1nc(=O)n(Cc2ccco2)c2c1CCC2)NCc1ccccc1Cl -8.4%
CCOc1ccc(N2CC(NC(=O)c3ccc(S(=O)(=O)N4CCOCC4)cc3)CC2=O)cc1 (stereo unspecified) -2.51%
Cc1cc(N2CCN(C)CC2)nc2ccc(NC(=O)Nc3ccc(Cl)cc3)cc12 -14.4%
COC(=O)c1scc(-c2ccc(C)cc2)c1S(=O)(=O)Nc1ccc(OC(F)(F)F)cc1 -6.65%
N#Cc1ccc(NC(=O)COCc2cc(-c3ccc4c(c3)OCO4)on2)cc1 -17.7%
CCOc1ccc(CNC(=O)CCn2c(=O)c3cccn3c3cccnc32)cc1 6.2%
COc1ccc(C)cc1NC(=O)Cn1nc(N2CCN(c3ccccc3OC)CC2)ccc1=O -1.56%
COc1ccccc1Cc1nc2ccccc2nc1SCC(=O)NCc1ccc(C)cc1 -5.75%
O=C(COCc1cc(-c2ccco2)on1)Nc1cc(Cl)ccc1O -12%
COc1ccc(-c2nc(SCC(=O)NC3CCCC3)c(-c3ccc(F)cc3)[nH]2)cc1OC -20.6%
COc1ccccc1CNC(=O)C(=O)NCC(c1cccnc1)N1CCN(c2ccccc2)CC1 (stereo unspecified) -10.4%
Cc1noc(C)c1S(=O)(=O)N(CC(=O)NCc1ccccc1)c1ccc(C(C)C)cc1 -2.62%
COc1ccc(CC(=O)N2CCc3c([nH]c4ccccc34)C2c2ccc(SC)cc2)cc1 (stereo unspecified) -2.27%
CC1CCN(C(c2ccc(F)cc2)c2sc3nc(-c4ccco4)nn3c2O)CC1 (stereo unspecified) -0.671%
COCCNC(=O)CCn1nc(-c2ccc(Cl)cc2)c2ccccc2c1=O -8.89%
CC(=O)N1CCCc2cc(S(=O)(=O)Nc3ccc(Cl)cc3F)ccc21 -10.4%
CC(=C(CCOC(=O)C(C)C)SSC(CCOC(=O)C(C)C)=C(C)N(C=O)Cc1cnc(C)nc1N)N(C=O)Cc1cnc(C)nc1N -9.87%
O=C(Nc1ccc2oc(-c3cccnc3)nc2c1)c1ccccc1F -41.4%
O=C(c1ccc2c(c1)N(Cc1ccccc1)C(=O)c1ccccc1S2(=O)=O)N1CCOCC1 -1.56%
CCc1ccc(-n2c(N3CCN(c4ccc(F)cc4)CC3)nc3ccccc3c2=O)cc1 0.379%
COc1ccc(NC(=O)C(NC(=O)/C=C\c2ccc3c(c2)OCO3)c2ccc(C)cc2)cc1 (stereo unspecified) -29.5%
COc1ccc(C(=O)N2CCN(C(=O)COc3ccccc3)CC2)cc1OC -14.2%
Cc1cc(S(=O)(=O)Nc2cc3c(cc2N2CCOCC2)n(C)c(=O)c(=O)n3C)ccc1F -1.83%
COc1ccc(-c2nc3n(n2)C(c2ccc(O)cc2)C(C(=O)Nc2cccnc2)=C(C)N3)cc1OC (stereo unspecified) -9.28%
O=C(Nc1cccc(Br)c1)c1cc(S(=O)(=O)N2CCCCC2)c[nH]1 -6.28%
CC/C(=C(\c1ccccc1)c1ccc(OCCN(C)C)cc1)c1ccccc1 -15.8%
COc1ccc(C(=O)Nc2nc(-c3ccc(Br)cc3)ns2)cc1 -12.9%
Cc1csc2nc(COc3ccc(NC(=O)c4ccccc4F)cc3)cc(=O)n12 12.2%
CCCNC(=O)c1ccc(Cn2c(SCC(=O)NC(C)C)nc3ccccc3c2=O)cc1 11.7%
CCOCCc1nn2c(=O)cc(COC(=O)c3ccc(NC(=O)c4cccs4)cc3)nc2s1 9.47%
Cc1cccc(C(=O)N2CCc3cc(CNC(=O)c4ccco4)ccc32)c1 -17.4%
CCOc1ccc(CCNC(=O)NCc2noc3ccc(C)cc23)cc1 -18.7%
CCc1oc2ccccc2c1C(=O)c1cc(Br)c(O)c(Br)c1 -9.74%
COC(=O)CN1C(=O)C(O)(c2c(C)[nH]c3ccccc23)c2ccccc21 (stereo unspecified) -17.1%
CCCn1c2ccccc2c2cnn(CC(=O)NCC3CCN(Cc4ccccc4C)CC3)c(=O)c21 1.71%
COc1ccccc1CNc1nccn(-c2ccc(F)cc2)c1=O -0.161%
Cc1ccc(-n2ncc3c(Nc4ccc5c(c4)OCCO5)ncnc32)cc1Cl -16.4%
Cc1ccc(C(=O)c2oc3ccccc3c2NC(=O)c2cc(-c3ccccc3)on2)cc1 -0.437%
CCOCCCN1C(=O)CN(C2CCCCCC2)C(=O)C1c1ccc(OCC)c(OC)c1 (stereo unspecified) -12%
COc1ccc(S(=O)(=O)NCCc2sc(-c3cccnc3)nc2C)cc1 -18.6%
COc1ccc(NC(=O)Cn2c(=O)c3cccn3c3ccccc32)cc1 -10.4%
O=C(NC1CC(=O)N(c2ccc(F)cc2)C1)c1ccc(S(=O)(=O)N2CCOCC2)cc1 (stereo unspecified) -11.7%
COc1ccc(NC(=O)c2cccc3c(=O)c4c([nH]c23)CCCC4)cc1 -16%
O=C(O)CCC(=O)N1CCc2cc(S(=O)(=O)NCc3ccc(F)cc3)ccc21 -7.83%
O=C1OC2(c3ccccc31)c1cc(Br)c(O)c(Br)c1Oc1c2cc(Br)c(O)c1Br -15.7%
CCCC1=Nc2cc(C(=O)NCc3ccccc3)ccc2Sc2ccccc21 -14.1%
Cc1ccc(C(C)C)c(OCC(=O)Nc2ccc3c(c2)nc(CCNC(=O)c2ccco2)n3C)c1 -9.16%
CCCCN(C)S(=O)(=O)c1ccc(C(=O)Nc2sc3c(c2C(=O)OCC)CCN(C(C)C)C3)cc1 -26.3%
CCSc1nc(-c2ccccc2)nc2c1Cc1c(CO)cnc(C)c1O2 -8.28%
CCOC(=O)C1CCN(C(=O)C2CCN(S(=O)(=O)c3c(C)noc3/C=C/c3ccc(C)cc3)CC2)CC1 -1.31%
COc1cc(OC)cc(C(=O)Nc2ccc3c(c2)CCCN3C(=O)c2cccs2)c1 -3.28%
CCOC(=O)c1[nH]c(C)c(CCC(=O)N2CCN(c3ccc(OC)cc3)CC2)c1C -16.7%
O=C(Nc1cc(F)ccc1F)C1CCN(C(=O)c2cnn(-c3ccccc3)c2-n2cccc2)CC1 -11.2%
Cc1ccc(NC(=O)CSc2nncn2C)c(C)c1 -12.1%
CCOC(=O)c1cc(NC(=O)c2ccccc2)c(=O)n2c1oc1ccc(Cl)cc12 -4.73%
